We go through 48 molecules from PubChem BioAssay AID1508642 (National Center for Advancing Translational Sciences (NCATS), 2021).

About 200 (0.47%) of roughly 43,000 compounds were called active. About 12% were inconclusive and are not listed. Calls come from the whole dose curve; as a rule, active = well fitted cell-killing curve with a large enough effect; inconclusive = small, poorly fitted or top-dose-only effect, or effect the other way; inactive = flat fitted curve, though single readings scatter. This is one part of the list.
% is set by controls: 0 for no effect and ±100 for the full control effect.

The test is described as follows: Cell viability qHTS assay in S16 Pmp22-F2sN cells. Note: nearly all actives have a fitted effect of over 65% in size. The following applies: S16 Pmp22-F2sN Schwann cells (luciferase reporters placed in the Pmp22 gene) viability, CellTiter-Glo, 24 h; series mostly up to 57.5 µM; activity change, negative = cytotoxicity: at the top concentration. The essentials: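 Rat S16 Schwann reporter line, 24 h treatment with library compounds delivered at 23 nL per well. Cell viability by CellTiter-Glo luminescence.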
As to `COc1ccc(CNC(=O)C2(c3cccs3)CCOCC2)cc1`, the “activity change, negative = cytotoxicity” value was inactive: 15%.

For the molecule `CCN(CC)c1ccc(C2C(C(N)=O)=C(C)Nc3nc(SCc4ccccc4Cl)nn32)cc1` (stereo not drawn), the “activity change, negative = cytotoxicity” value was inactive: 25.3%.

Regarding `CCOC(=O)c1ccc(N=C2SC(C(=O)Nc3ccccc3)CC(=O)N2C)cc1` (stereo not drawn), the “activity change, negative = cytotoxicity” value was inactive: 7.96%.

In the case of `Cc1ccc(NC(=O)c2ccc(C)c(S(=O)(=O)N3CCCCCC3)c2)cc1`, the “activity change, negative = cytotoxicity” value was inactive: -0.368%.

As for `CCOc1ccc(NC(=O)c2c(NCc3cccs3)sc3c2CCC(C)C3)cc1` (stereo not drawn), the “activity change, negative = cytotoxicity” value is inactive: 1.46%.

In the case of `COc1ccc(N2CCN(CC(O)COc3c(OC)cccc3OC)CC2)cc1` (stereo not drawn), the “activity change, negative = cytotoxicity” value was inactive: 0.448%.

Consider `CCN(CC)S(=O)(=O)c1cccc(C(=O)Nc2ccccc2C(=O)Nc2ccc(OC)cc2)c1`, for which the “activity change, negative = cytotoxicity” value is inactive: 13.9%.

On to `CCCCc1nn2c(=O)cc(COC(=O)CNC(=O)COc3ccc(C)cc3)nc2s1`, for which the “activity change, negative = cytotoxicity” value was inactive: -5%.

Turning to `Cc1ccc2oc(-c3ccc(NC(=O)c4oc5ccc(Cl)cc5c4C)cc3)nc2c1`, the “activity change, negative = cytotoxicity” value was inactive: 12.1%.

For `Cc1ccc(-n2nc(C)c3c(C(F)(F)F)cc(-c4cccnc4)nc32)cc1C`, the “activity change, negative = cytotoxicity” value was inactive: -2.32%.

As for `CCCCN(C)CCCNC(=O)c1cn(CC)c2ccc(S(=O)(=O)N3CCc4ccccc4C3)cc2c1=O`, the “activity change, negative = cytotoxicity” value was inactive: -26.9%.

`COc1ccc(NC(=O)Nc2cc(C(=O)NCc3ccc(C)cc3)ccc2N2CCCC2)cc1`: the “activity change, negative = cytotoxicity” value is inactive: -1.91%.

As for `COc1ccccc1CNC(=O)c1cc(S(=O)(=O)N2CCCC(C)C2)cn1C` (stereo not drawn), the “activity change, negative = cytotoxicity” value was inactive: 4.08%.

Turning to `Cc1cccc(NC(=O)Cn2c(SCC(=O)NCc3ccccc3)nc3ccccc32)c1C`, the “activity change, negative = cytotoxicity” value was inactive: -3.7%.

Consider `O=C(c1cnn(-c2ccc(F)cc2)c1-n1cccc1)N1CCN(c2ccccc2)CC1`, for which the “activity change, negative = cytotoxicity” value was inactive: 14.2%.

Regarding `COc1ccc(OC)c(CNC(=O)NCc2noc3ccc(C)cc23)c1`, the “activity change, negative = cytotoxicity” value was inactive: 0.13%.

As to `Cc1ccc(-n2nc(C)c3c(C(=O)NCCc4ccc(S(N)(=O)=O)cc4)cc(C)nc32)cc1`, the “activity change, negative = cytotoxicity” value is inactive: -1.75%.

As for `O=C(CN1C(=O)c2cccnc2Sc2ccccc21)Nc1cc(F)ccc1F`, the “activity change, negative = cytotoxicity” value is inactive: 6.61%.

With `CCC1CN(C(=O)N2CCC(C(=O)NCc3cccc(F)c3)CC2)c2cc(C)ccc2O1` (stereo not drawn), the “activity change, negative = cytotoxicity” value is inactive: -7.45%.

Take `CCN1C(=O)c2ccccc2S(=O)(=O)c2ccc(C(=O)NCc3ccccc3OC)cc21`: the “activity change, negative = cytotoxicity” value is inactive: 11.7%.

For the molecule `CC(C)c1ccc(NC(=O)c2cc3c(=O)[nH]c4ccccc4c3n2C)cc1`, the “activity change, negative = cytotoxicity” value is inactive: 5.25%.

Consider `O=C(CSc1cn(CC(=O)N2CCCCC2)c2ccccc12)NCc1ccccc1Cl`, for which the “activity change, negative = cytotoxicity” value is inactive: 1.13%.

As for `CCC(O)c1nc2ccccc2n1Cc1cc(C)ccc1C` (stereo not drawn), the “activity change, negative = cytotoxicity” value was inactive: 6.6%.

`COc1ccccc1NS(=O)(=O)c1cn(C)c(C)n1`: the “activity change, negative = cytotoxicity” value was inactive: 0.786%.

With `COc1ccc(N2CC(NC(=O)COc3cccc(C)c3)CC2=O)cc1OC` (stereo not drawn), the “activity change, negative = cytotoxicity” value is inactive: -5.24%.

In the case of `COc1ccccc1N(CC(=O)Nc1ccccc1C(F)(F)F)S(=O)(=O)c1ccc(C)cc1`, the “activity change, negative = cytotoxicity” value was inactive: 18.7%.

Turning to `Cc1ccc(C)c(N2CCN(C(=O)Cn3nc(C)c4sc5ccccc5c4c3=O)CC2)c1`, the “activity change, negative = cytotoxicity” value is inactive: 5.81%.

For `COc1ccc(OC)c(NC(=O)C(C)n2c(=O)c(-c3ccccc3NC(C)=O)nc3ccccc32)c1` (stereo not drawn), the “activity change, negative = cytotoxicity” value was inactive: -0.704%.

Turning to `O=C(CC1Sc2ccccc2NC1=O)Nc1cccc(C(F)(F)F)c1` (stereo not drawn), the “activity change, negative = cytotoxicity” value was inactive: 29.6%.

As for `COc1ccc(-c2nc(CSCC(=O)NCCC(C)C)c(C)o2)cc1OC`, the “activity change, negative = cytotoxicity” value was inactive: -4.68%.

For `CCOc1ccc(NC(=O)CSc2nc3ccsc3c(=O)n2CCC(C)C)cc1`, the “activity change, negative = cytotoxicity” value is inactive: 2.2%.

As to `Cc1ccc(NC(=O)C2CCN(S(=O)(=O)c3ccc4c(c3)CCCC(=O)N4)CC2)cc1N(C)C`, the “activity change, negative = cytotoxicity” value was inactive: 4.99%.

`COc1ccc(OC)c(NC(=O)C2CCN(S(=O)(=O)c3ccc4c(c3)CC(C)N4C(C)=O)CC2)c1` (stereo not drawn): the “activity change, negative = cytotoxicity” value was inactive: 22.9%.

In the case of `COc1cccc(C2C(C(N)=O)=C(C)Nc3ncnn32)c1` (stereo not drawn), the “activity change, negative = cytotoxicity” value is inactive: -1.9%.

Turning to `O=C(CSc1nc2c(oc3ccccc32)c(=O)n1-c1ccccc1)Nc1ccc(F)c(Cl)c1`, the “activity change, negative = cytotoxicity” value is inactive: 19.1%.

For the molecule `COc1ccc(OC)c(NC(=O)C2=C(C)C(=O)OC23CCN(C(C)C)CC3)c1`, the “activity change, negative = cytotoxicity” value is inactive: -19%.

As for `Fc1ccc(N2CCN(c3ncnc4onc(-c5ccc(Cl)cc5)c34)CC2)cc1`, the “activity change, negative = cytotoxicity” value was inactive: -7.42%.

For `O=C(c1ccc2c(c1)N(Cc1ccc(Cl)cc1)C(=O)c1ccccc1S2(=O)=O)N1CCOCC1`, the “activity change, negative = cytotoxicity” value was inactive: 23.6%.

Turning to `CCCCC(CC)CNC(=O)CCCCCn1c(=O)[nH]c2ccsc2c1=O` (stereo not drawn), the “activity change, negative = cytotoxicity” value was inactive: -23%.

For `CCc1ccc(-n2c(=O)c3ccccc3n(Cc3ccccc3C#N)c2=O)cc1`, the “activity change, negative = cytotoxicity” value was inactive: 14.4%.

Turning to `CCOc1ccccc1NC(=O)Cn1c(=O)n(Cc2ccco2)c(=O)c2sc3ccccc3c21`, the “activity change, negative = cytotoxicity” value was inactive: -0.737%.

Turning to `CCOC(=O)c1c(NC(C)=O)c2c3c(sc2n1Cc1cc(C)ccc1C)CCCC3`, the “activity change, negative = cytotoxicity” value was inactive: 20.2%.

`O=C(O)CCn1ccc2cc(S(=O)(=O)N3CCCCCC3)ccc21`: the “activity change, negative = cytotoxicity” value is inactive: -9.7%.

With `CSc1ccc(CCNC(=O)c2csc3c2CCCCC3)cc1`, the “activity change, negative = cytotoxicity” value is inactive: -2.6%.

Take `Cc1cc(C)c(NC(=O)C(=O)NCCc2csc(-c3ccc(F)cc3)n2)c(C)c1`: the “activity change, negative = cytotoxicity” value was inactive: 3.74%.

As to `CN(C)c1ccc(CNC(=O)c2ccc3nc(Cc4ccccc4)oc3c2)cc1`, the “activity change, negative = cytotoxicity” value was inactive: -26.2%.

For the molecule `Cc1nc2nc(NCc3ccc(Br)cc3)[nH]n2c(=O)c1Cc1ccccc1`, the “activity change, negative = cytotoxicity” value was inactive: -2.71%.

Consider `CCCCOc1ccc(C(=O)Nc2cccc(-c3nc4ccccc4o3)c2C)cc1`, for which the “activity change, negative = cytotoxicity” value was inactive: 20.2%.
